Results are given in words; binding and its absence hold for the method and conditions named. Some results given as binding are weak or reduced against the parent protein; the word gives no strength. Sequences can lack the tags named with a protein. One block for each binder: values may come before it.
What was measured:
Test in all cases: two-hybrid; truncations fused to the GAL4 binding domain (pGBKT7) with full-length ROC8 or ROC5 fused to the AD (pGADT7) in yeast AH109; growth on SD/-Trp/-Leu/-His/-Ade
[1] = molecular target: T1, BD-ROC5 X5 (amino acids 309-804) (rice (Oryza sativa L.)) (UniProt Q6EPF0)
T1 sequence: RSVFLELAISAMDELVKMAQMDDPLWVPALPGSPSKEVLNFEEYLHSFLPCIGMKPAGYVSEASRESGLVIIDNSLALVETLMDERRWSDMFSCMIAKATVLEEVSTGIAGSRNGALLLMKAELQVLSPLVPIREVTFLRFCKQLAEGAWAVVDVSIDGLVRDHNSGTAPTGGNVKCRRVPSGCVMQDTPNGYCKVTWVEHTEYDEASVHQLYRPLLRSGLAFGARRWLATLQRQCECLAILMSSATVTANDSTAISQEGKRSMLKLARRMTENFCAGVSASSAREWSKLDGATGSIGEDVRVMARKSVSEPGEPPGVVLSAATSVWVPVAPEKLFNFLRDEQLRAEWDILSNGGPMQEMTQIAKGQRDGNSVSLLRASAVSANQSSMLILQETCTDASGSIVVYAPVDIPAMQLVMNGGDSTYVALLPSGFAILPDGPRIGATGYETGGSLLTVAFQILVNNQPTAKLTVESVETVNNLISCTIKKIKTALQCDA

[2] = molecular target: T2, BD-ROC5 X7 (amino acids 545-804) (rice (Oryza sativa L.)) (UniProt Q6EPF0)
T2 sequence: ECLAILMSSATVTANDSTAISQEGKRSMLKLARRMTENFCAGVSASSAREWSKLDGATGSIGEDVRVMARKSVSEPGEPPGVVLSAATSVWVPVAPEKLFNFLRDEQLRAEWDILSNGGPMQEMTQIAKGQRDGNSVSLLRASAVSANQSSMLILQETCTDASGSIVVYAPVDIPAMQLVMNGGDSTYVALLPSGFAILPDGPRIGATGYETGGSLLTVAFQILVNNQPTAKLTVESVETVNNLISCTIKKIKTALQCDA

[3] = molecular target: T3, BD-ROC5 X8 (amino acids 154-308) (rice (Oryza sativa L.)) (UniProt Q6EPF0)
T3 sequence: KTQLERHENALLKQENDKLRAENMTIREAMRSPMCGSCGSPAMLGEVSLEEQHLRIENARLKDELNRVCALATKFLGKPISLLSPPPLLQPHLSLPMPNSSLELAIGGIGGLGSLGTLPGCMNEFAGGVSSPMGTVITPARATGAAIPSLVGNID

[4] = molecular target: T4, BD-ROC5 X9 (amino acids 97-308) (rice (Oryza sativa L.)) (UniProt Q6EPF0)
T4 sequence: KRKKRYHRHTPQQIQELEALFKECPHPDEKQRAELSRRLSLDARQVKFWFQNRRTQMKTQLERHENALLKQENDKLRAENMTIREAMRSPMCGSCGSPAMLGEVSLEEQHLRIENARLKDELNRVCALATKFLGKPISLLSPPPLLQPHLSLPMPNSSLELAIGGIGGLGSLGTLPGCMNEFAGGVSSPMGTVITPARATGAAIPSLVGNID

[5] = molecular target: T5, BD-ROC8 P5 (amino acids 201-710) (rice (Oryza sativa L.)) (UniProt Q69T58)
T5 sequence: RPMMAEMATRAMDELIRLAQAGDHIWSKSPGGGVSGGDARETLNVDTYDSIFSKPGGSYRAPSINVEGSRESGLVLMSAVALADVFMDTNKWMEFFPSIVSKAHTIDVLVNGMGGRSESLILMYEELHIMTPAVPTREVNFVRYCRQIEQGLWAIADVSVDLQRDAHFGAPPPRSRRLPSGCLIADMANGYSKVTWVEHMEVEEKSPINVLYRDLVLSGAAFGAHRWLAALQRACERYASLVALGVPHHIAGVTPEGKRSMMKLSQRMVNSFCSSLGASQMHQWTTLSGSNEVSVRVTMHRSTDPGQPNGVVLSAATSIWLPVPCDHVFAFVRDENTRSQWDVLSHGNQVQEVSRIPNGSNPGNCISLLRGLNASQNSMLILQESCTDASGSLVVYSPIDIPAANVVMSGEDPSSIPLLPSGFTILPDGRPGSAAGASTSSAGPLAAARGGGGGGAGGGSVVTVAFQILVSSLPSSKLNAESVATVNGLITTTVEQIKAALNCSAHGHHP

[6] = molecular target: T6, BD-ROC8 P7 (amino acids 436-710) (rice (Oryza sativa L.)) (UniProt Q69T58)
T6 sequence: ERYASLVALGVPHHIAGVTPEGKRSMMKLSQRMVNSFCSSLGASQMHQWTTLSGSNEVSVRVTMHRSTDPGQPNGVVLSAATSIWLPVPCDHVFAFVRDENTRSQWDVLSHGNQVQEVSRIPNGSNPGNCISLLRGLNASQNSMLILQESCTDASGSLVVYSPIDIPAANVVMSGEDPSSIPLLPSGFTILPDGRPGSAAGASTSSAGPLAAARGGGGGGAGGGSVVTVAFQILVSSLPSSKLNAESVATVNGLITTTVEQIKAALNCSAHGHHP

[7] = molecular target: T7, BD-ROC8 P2 (amino acids 1-70) (rice (Oryza sativa L.)) (UniProt Q69T58)
T7 sequence: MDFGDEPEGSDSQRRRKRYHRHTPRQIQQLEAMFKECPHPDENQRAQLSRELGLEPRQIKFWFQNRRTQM

[8] = molecular target: T8, BD-ROC8 P3 (amino acids 18-70) (rice (Oryza sativa L.)) (UniProt Q69T58)
T8 sequence: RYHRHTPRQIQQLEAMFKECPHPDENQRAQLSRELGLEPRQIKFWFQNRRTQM

[9] = molecular target: T9, BD-ROC8 P6 (amino acids 201-435) (rice (Oryza sativa L.)) (UniProt Q69T58)
T9 sequence: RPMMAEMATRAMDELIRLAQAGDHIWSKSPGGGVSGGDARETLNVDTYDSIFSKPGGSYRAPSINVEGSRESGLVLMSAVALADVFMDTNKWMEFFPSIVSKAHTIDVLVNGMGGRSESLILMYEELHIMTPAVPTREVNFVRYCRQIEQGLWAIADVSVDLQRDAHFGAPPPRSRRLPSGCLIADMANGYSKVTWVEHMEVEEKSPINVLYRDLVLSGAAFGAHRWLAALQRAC

- binding [1]: binds
- binding [2]: no binding
- binding [3]: binds
- binding [4]: binds
- binding [5]: binds
- binding [6]: binds
B1: AD-ROC8 (full-length ROC8 fused to the GAL4 activation domain) (protein, UniProt Q69T58 1-710)
chain: MDFGDEPEGSDSQRRRKRYHRHTPRQIQQLEAMFKECPHPDENQRAQLSRELGLEPRQIKFWFQNRRTQMKAQHERADNCFLRAENDKIRCENIAIREALKNVICPTCGGPPVGEDYFDEQKLRMENARLKEELDRVSNLTSKYLGRPFTQLPPATPPMTVSSLDLSVGGMGGPSLDLDLLSGGSSGIPFQLPAPVSDMERPMMAEMATRAMDELIRLAQAGDHIWSKSPGGGVSGGDARETLNVDTYDSIFSKPGGSYRAPSINVEGSRESGLVLMSAVALADVFMDTNKWMEFFPSIVSKAHTIDVLVNGMGGRSESLILMYEELHIMTPAVPTREVNFVRYCRQIEQGLWAIADVSVDLQRDAHFGAPPPRSRRLPSGCLIADMANGYSKVTWVEHMEVEEKSPINVLYRDLVLSGAAFGAHRWLAALQRACERYASLVALGVPHHIAGVTPEGKRSMMKLSQRMVNSFCSSLGASQMHQWTTLSGSNEVSVRVTMHRSTDPGQPNGVVLSAATSIWLPVPCDHVFAFVRDENTRSQWDVLSHGNQVQEVSRIPNGSNPGNCISLLRGLNASQNSMLILQESCTDASGSLVVYSPIDIPAANVVMSGEDPSSIPLLPSGFTILPDGRPGSAAGASTSSAGPLAAARGGGGGGAGGGSVVTVAFQILVSSLPSSKLNAESVATVNGLITTTVEQIKAALNCSAHGHHP

- binding [1]: binds
- binding [3]: binds
- binding [4]: binds
- binding [7]: no binding
- binding [8]: no binding
- binding [5]: binds
- binding [9]: no binding
- binding [6]: no binding
B2: AD-ROC5 (full-length ROC5 fused to the GAL4 activation domain) (protein, UniProt Q6EPF0 1-804)
chain: MSFGGLFDGGGGGGMQFPFASGFASSPALSLALDNAGGGIGGRMLGGGAGAGSSAGGAMTRDTEAENDSRSGSDHLDAISAAGEDDVEDAEPSNSRKRKKRYHRHTPQQIQELEALFKECPHPDEKQRAELSRRLSLDARQVKFWFQNRRTQMKTQLERHENALLKQENDKLRAENMTIREAMRSPMCGSCGSPAMLGEVSLEEQHLRIENARLKDELNRVCALATKFLGKPISLLSPPPLLQPHLSLPMPNSSLELAIGGIGGLGSLGTLPGCMNEFAGGVSSPMGTVITPARATGAAIPSLVGNIDRSVFLELAISAMDELVKMAQMDDPLWVPALPGSPSKEVLNFEEYLHSFLPCIGMKPAGYVSEASRESGLVIIDNSLALVETLMDERRWSDMFSCMIAKATVLEEVSTGIAGSRNGALLLMKAELQVLSPLVPIREVTFLRFCKQLAEGAWAVVDVSIDGLVRDHNSGTAPTGGNVKCRRVPSGCVMQDTPNGYCKVTWVEHTEYDEASVHQLYRPLLRSGLAFGARRWLATLQRQCECLAILMSSATVTANDSTAISQEGKRSMLKLARRMTENFCAGVSASSAREWSKLDGATGSIGEDVRVMARKSVSEPGEPPGVVLSAATSVWVPVAPEKLFNFLRDEQLRAEWDILSNGGPMQEMTQIAKGQRDGNSVSLLRASAVSANQSSMLILQETCTDASGSIVVYAPVDIPAMQLVMNGGDSTYVALLPSGFAILPDGPRIGATGYETGGSLLTVAFQILVNNQPTAKLTVESVETVNNLISCTIKKIKTALQCDA
